Assay [1] has as its system HSkMC (human skeletal muscle cells). The assay is described as follows: cytotoxicity call (relative viability < 0.9). The note with it: 10 µM.
Assay [2] concerns HepG2. As to the kind of experiment: cytotoxicity call (relative viability < 0.9). The note with it: 10 µM.
The test system of assay [3] is S. aureus RN4220. As to the kind of experiment: growth inhibition call (relative growth <= 0.2). The conditions noted are these: 50 µM.

The list shows a part of the results.

The values below come from the antibiotic and cytotoxicity screens of Wong et al. (2023).

For the molecule `C[C@@H]1CCCCO[C@@H](CN(C)Cc2ccccc2)[C@@H](C)CN([C@@H](C)CO)C(=O)c2cc(NC(=O)Nc3cccc4ccccc34)ccc2O1`, the cytotoxicity call in assay [1] and in assay [2] was “inactive” throughout. The growth inhibition call in assay [3] was “inactive”.

For the molecule `O=C(C[C@@H]1CC[C@@H](NC(=O)CN2CCOCC2)[C@@H](CO)O1)NCCc1ccccc1`, the cytotoxicity call in assay [1] and in assay [2] was “inactive” throughout. Also, the growth inhibition call in assay [3] was “inactive”.

For `Cc1noc(C)c1NC(=O)N(C)C[C@H]1OCCCC[C@H](C)Oc2ccc(NC(=O)Nc3ccc(F)cc3)cc2C(=O)N([C@H](C)CO)C[C@@H]1C`, the cytotoxicity call in assay [1] and in assay [2] was “inactive” in each case. For the same molecule, the growth inhibition call in assay [3] was “inactive”.

Consider `C[C@H](O)CC1=C[C@H](O)[C@@H](C)OC1=O`, for which the cytotoxicity call in assay [1] and in assay [2] was “inactive” throughout. Moreover, in assay [3], the growth inhibition call is “inactive”.

On to `COc1ccc(S(=O)(=O)N(C)C[C@@H]2Oc3ccc(NS(=O)(=O)c4ccc(C)cc4)cc3C(=O)N([C@@H](C)CO)C[C@H]2C)cc1`, for which the cytotoxicity call in assay [1] and in assay [2] was “inactive” throughout. In addition, the growth inhibition call in assay [3] is “inactive”.

With `C[C@H]1CN([C@@H](C)CO)C(=O)c2cccc(NC(=O)NC3CCCCC3)c2O[C@H]1CN(C)Cc1ccc(C(F)(F)F)cc1`, the cytotoxicity call in assay [1] and in assay [2] was “inactive” throughout. Further, the growth inhibition call in assay [3] was “inactive”.

With `COc1ccccc1NC(=O)N(C)C[C@@H]1Oc2cc(Br)ccc2S(=O)(=O)N([C@@H](C)CO)C[C@H]1C`, the cytotoxicity call in assay [1] and in assay [2] was “inactive” in each case. For the same molecule, the growth inhibition call in assay [3] is “inactive”.

For the molecule `COc1ccc(S(=O)(=O)Nc2ccc3c(c2)C(=O)N([C@H](C)CO)C[C@H](C)[C@@H](CN(C)Cc2ccc(C(=O)O)cc2)OCCCC[C@H](C)O3)cc1`, the cytotoxicity call in assay [1] and in assay [2] was “inactive” each time. Also, the growth inhibition call in assay [3] was “inactive”.

Regarding `Cc1cncc2cccc(S(=O)(=O)N[C@H]3CN[C@H](COC(=O)NCCOCCOCCN)C3)c12`, the cytotoxicity call in assay [1] and in assay [2] was “inactive” in each case. Moreover, in assay [3], the growth inhibition call is “inactive”.

Consider `C[C@@H]1CCCCO[C@@H](CN(C)C(=O)Cc2ccccc2)[C@H](C)CN([C@@H](C)CO)C(=O)c2cc(NC(=O)CCC(F)(F)F)ccc2O1`, for which the cytotoxicity call in assay [1] and in assay [2] was “inactive” throughout. Also, the growth inhibition call in assay [3] was “inactive”.

As to `O=C1CCNc2cc3ccccc3cc21`, the cytotoxicity call in assay [1] and in assay [2] was “active” throughout. Further, the growth inhibition call in assay [3] is “active”.

For the molecule `C[C@H](CO)N1C[C@H](C)[C@H](CN(C)Cc2ccc(C(F)(F)F)cc2)OCCCC[C@H](C)Oc2ccc(NC(=O)c3ccccc3)cc2C1=O`, the cytotoxicity call in assay [1] and in assay [2] was “inactive” in each case. The growth inhibition call in assay [3] was “inactive”.

`C[C@H](CO)N1C[C@H](C)[C@H](CN(C)C(=O)Nc2ccc3c(c2)OCO3)Oc2ccc(NC(=O)C3CC3)cc2C1=O`: the cytotoxicity call in assay [1] and in assay [2] was “inactive” throughout. The growth inhibition call in assay [3] is “inactive”.

Take `C=CCOC(=O)N(C)C[C@@H]1Oc2ccc(NC(=O)NC(C)C)cc2C(=O)N([C@H](C)CO[Si](C)(C)C(C)(C)C)C[C@H]1C`: the cytotoxicity call in assay [1] and in assay [2] was “inactive” each time. The growth inhibition call in assay [3] was “inactive”.

`C[C@@H]1CN([C@@H](C)CO)C(=O)Cc2cc(NS(C)(=O)=O)ccc2O[C@H]1CN(C)C`: the cytotoxicity call in assay [1] and in assay [2] was “inactive” each time. In addition, the growth inhibition call in assay [3] was “inactive”.

As for `Cc1noc(C)c1NC(=O)Nc1ccc2c(c1)CC(=O)N([C@@H](C)CO)C[C@@H](C)[C@H](CN(C)C(=O)Nc1cccc3ccccc13)O2`, the cytotoxicity call in assay [1] was “inactive”. For the same molecule, the cytotoxicity call in assay [2] was “active”. For the same molecule, the growth inhibition call in assay [3] was “inactive”.

Take `C[C@@H]1CCCCO[C@H](CN(C)C(=O)c2ccncc2)[C@@H](C)CN([C@@H](C)CO)C(=O)c2cc(NS(C)(=O)=O)ccc2O1`: the cytotoxicity call in assay [1] and in assay [2] was “inactive” each time. Further, in assay [3], the growth inhibition call was “inactive”.

`CC(C)NC(=O)N(C)C[C@@H]1OCCCC[C@@H](C)Oc2ccc(NS(=O)(=O)c3cn(C)cn3)cc2C(=O)N([C@H](C)CO)C[C@H]1C`: the cytotoxicity call in assay [1] and in assay [2] was “inactive” each time. Besides, in assay [3], the growth inhibition call was “inactive”.

As to `CN(C)c1ccc2c(=O)[nH][nH]c(=O)c2c1`, the cytotoxicity call in assay [1] and in assay [2] was “inactive” in each case. Also, the growth inhibition call in assay [3] is “inactive”.

Take `COc1ccc(CN(C)C[C@@H]2OCCCC[C@H](C)Oc3ccc(NS(=O)(=O)c4ccc(OC)cc4)cc3C(=O)N([C@H](C)CO)C[C@H]2C)cc1`: the cytotoxicity call in assay [1] and in assay [2] was “inactive” in each case. Further, the growth inhibition call in assay [3] was “inactive”.

Turning to `Cn1cnc(S(=O)(=O)N[C@@H]2CC[C@@H](CC(=O)Nc3ccccc3)O[C@H]2CO)c1`, the cytotoxicity call in assay [1] and in assay [2] was “inactive” in each case. Moreover, in assay [3], the growth inhibition call was “inactive”.

With `COc1ccc(S(=O)(=O)N[C@H]2C=C[C@H](CC(=O)N3CCC(Cc4ccccc4)CC3)O[C@@H]2CO)cc1`, the cytotoxicity call in assay [1] and in assay [2] was “inactive” throughout. Further, the growth inhibition call in assay [3] is “inactive”.

Consider `COc1ccc(S(=O)(=O)N(C)C[C@H]2OCCCC[C@H](C)Oc3ccc(NC(=O)Nc4ccccc4)cc3C(=O)N([C@H](C)CO)C[C@H]2C)cc1`, for which the cytotoxicity call in assay [1] and in assay [2] was “inactive” each time. In addition, the growth inhibition call in assay [3] was “inactive”.

Take `Cc1cc(Nc2ncc(Cl)c(Nc3ccccc3S(=O)(=O)C(C)C)n2)c(OC(C)C)cc1C1CCNCC1`: the cytotoxicity call in assay [1] and in assay [2] was “active” throughout. The growth inhibition call in assay [3] was “inactive”.

Turning to `C[C@@H]1CN([C@@H](C)CO)C(=O)c2cc(NC(=O)CCCN(C)C)ccc2O[C@H]1CN(C)C(=O)Nc1ccc(F)cc1`, the cytotoxicity call in assay [1] and in assay [2] was “inactive” throughout. Also, in assay [3], the growth inhibition call is “inactive”.

In the case of `C[C@H]1CN([C@@H](C)CO)C(=O)c2cc(NC(=O)NC3CCCCC3)ccc2O[C@@H]1CN(C)S(C)(=O)=O`, the cytotoxicity call in assay [1] and in assay [2] was “inactive” each time. Further, the growth inhibition call in assay [3] is “inactive”.

For the molecule `C[C@@H]1CN([C@H](C)CO)C(=O)c2cc(NC(=O)Nc3ccc(C(F)(F)F)cc3)ccc2O[C@@H]1CN(C)S(C)(=O)=O`, the cytotoxicity call in assay [1] and in assay [2] was “inactive” throughout. Moreover, in assay [3], the growth inhibition call was “inactive”.

`COCCOC(=O)N1C(=O)[C@@]2(c3cc(C#CC4(O)CCCCCC4)ccc31)[C@H](C(=O)N1CCN(c3ncccn3)CC1)[C@H]1C(=O)O[C@H](c3ccccc3)[C@H](c3ccccc3)N1[C@@H]2c1ccc(OCCO)cc1`: the cytotoxicity call in assay [1] and in assay [2] was “inactive” in each case. The growth inhibition call in assay [3] is “inactive”.
